Reference: PubChem BioAssay AID488969 (Vanderbilt High Throughput Screening Facility, 2010)
Over roughly 110,000 compounds, “z-score” has its median near -0.1; the highest 2% begin near 2. The list shows a part of the results. Active and inactive are the calls of the source.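 The calls were made as follows: active = z-score in the third read window above 3 or below -3; inactive = the rest.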

Biological target: Metabotropic glutamate receptor 8 (Rattus norvegicus) (UniProt P70579)
Assay: rat mGluR8 modulators via GIRK flux, primary screen, cell-based, thallium flux, HTS (AID 488969)
Conditions: HEK293 rat mGluR8, GIRK (G protein-gated inwardly rectifying potassium channel) thallium flux, FluoZin2; at 10 µM; stronger effect = higher value; submaximal glutamate (EC20) added with thallium

UniProt P70579, sequence (P70579 whole entry, looked up): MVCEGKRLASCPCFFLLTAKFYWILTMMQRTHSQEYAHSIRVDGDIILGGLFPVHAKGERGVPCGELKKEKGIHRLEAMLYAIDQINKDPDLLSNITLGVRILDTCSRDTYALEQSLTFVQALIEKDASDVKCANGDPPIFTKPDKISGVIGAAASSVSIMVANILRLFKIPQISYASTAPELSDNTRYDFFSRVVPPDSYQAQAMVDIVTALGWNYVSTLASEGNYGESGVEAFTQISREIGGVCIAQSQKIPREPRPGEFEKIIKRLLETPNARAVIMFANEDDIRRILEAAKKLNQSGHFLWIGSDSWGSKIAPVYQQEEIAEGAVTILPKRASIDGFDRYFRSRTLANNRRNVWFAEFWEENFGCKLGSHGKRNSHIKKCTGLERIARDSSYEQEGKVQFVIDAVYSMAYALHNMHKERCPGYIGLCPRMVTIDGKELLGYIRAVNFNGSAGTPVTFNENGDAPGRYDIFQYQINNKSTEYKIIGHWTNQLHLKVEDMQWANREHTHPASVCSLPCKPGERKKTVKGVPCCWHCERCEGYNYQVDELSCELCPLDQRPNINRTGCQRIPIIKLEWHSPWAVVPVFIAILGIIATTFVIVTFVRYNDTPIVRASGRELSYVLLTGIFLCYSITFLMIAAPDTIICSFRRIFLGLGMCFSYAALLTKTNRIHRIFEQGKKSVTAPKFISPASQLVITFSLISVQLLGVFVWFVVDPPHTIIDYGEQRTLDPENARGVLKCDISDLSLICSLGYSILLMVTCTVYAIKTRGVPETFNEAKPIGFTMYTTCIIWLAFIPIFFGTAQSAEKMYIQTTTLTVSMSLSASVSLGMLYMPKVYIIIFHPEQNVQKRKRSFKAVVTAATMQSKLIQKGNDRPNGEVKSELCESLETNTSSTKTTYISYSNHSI

Structure (SMILES) | z-score
CC(C)=C1SC(N2CCN(c3cccc(C(F)(F)F)c3)CC2)=NC1=O | -0.205
Cc1noc(C)c1S(=O)(=O)Nc1ccc(C(=O)N2CCCCC2)cc1 | -0.2
COc1ccc(CNC(=O)C2CC=CCC2C(=O)O)cc1OC (configuration not stated) | -0.532
CCc1ccc(N(C(=O)c2ccco2)C(C(=O)NC2CCCC2)c2ccco2)cc1 (configuration not stated) | -1.06
CCCCCC1CC(CC(=O)Nc2ccc([N+](=O)[O-])cc2)C(=O)O1 (configuration not stated) | 0.574
CC(c1ccccc1)C1CC(=O)N(c2ccc(C(=O)O)cc2)C1=O (configuration not stated) | -0.795
O=C1Nc2ccccc2S/C1=C/Nc1cccc(Cl)c1 | -0.29
Cc1ccc(NC(=O)COC(=O)c2ccc3c(c2)NC(=O)C2CCCN32)cc1C (configuration not stated) | -0.301
N#CCSc1nc2c(cc1C#N)CCCCCC2 | -0.538
Clc1ccc(SCCn2cncn2)cc1 | -0.181
C/C(=N\O)c1ccc2c3ccccc3n(C)c2c1 | 0.769
COc1ccc(-c2nc(C#N)c(NCCc3ccccc3)o2)cc1 | -0.307
N#C/C(=C/c1ccc(N2CCOCC2)o1)c1nc2ccccc2[nH]1 | active: -3.93
O=C(O)C1CC1C(=O)N1CCN(c2ccc(Cl)c(Cl)c2)CC1 (configuration not stated) | -0.173
Nc1nc2n(n1)C(c1cccs1)CC(c1ccc(F)cc1)N2 (configuration not stated) | active: 6.13
CCOc1ccc(C(C)=O)cc1COC(=O)C1=COCCO1 | -1.15
O=C(/C=C/c1ccco1)NC(=S)Nc1nc(-c2ccc(Cl)cc2)cs1 | -0.111
CCOC(=O)CCc1c(C)c2ccc(OCc3ccc([N+](=O)[O-])cc3)cc2oc1=O | -0.187
CCOc1nc(-c2ccc(Cl)cc2Cl)ccc1C#N | -0.211
CCOC(=O)c1cc(-c2ccccc2)n(CCC(=O)NC(C)CC)c1C (configuration not stated) | -0.204
COC(=O)c1c(NC(=O)Cc2cccs2)sc(C(=O)NC2CCCCC2)c1C | -2
COCCOC(=O)c1c(C)nc(SCC(=O)Nc2cccc3ccccc23)c(C#N)c1-c1ccco1 | 0.0821
O=C(NCc1cccs1)C1CCCN(S(=O)(=O)c2ccc(Br)s2)C1 (configuration not stated) | 0.219

Structure (SMILES) | z-score
CCOC(=O)Cc1csc(NC(=O)c2sc3nc4cc(C)ccc4cc3c2N)n1 | 0.522
CCN1CCN(Cc2cc(=O)oc3cc(C)cc(C)c23)CC1 | 1.61
Cc1ccc(S(=O)(=O)N(CC(=O)NCc2ccco2)Cc2ccccc2F)cc1 | -1.28
COC(=O)Cc1c(C)nc2nc(-c3ccc(OC)cc3)[nH]n2c1=O | -0.0668
O=C1OC(N2CCN(c3ccccn3)CC2)c2ccccc21 (configuration not stated) | -0.174
Clc1ncnc2scc(C3COc4ccccc4O3)c12 (configuration not stated) | -0.228
C=CCSC1=C(C#N)C(c2ccccc2OC)CC(=O)N1 (configuration not stated) | -1.09
COc1ccc2[nH]c(C(O)(Cc3cccnc3)Cc3cccnc3)cc2c1 | -0.149
O=C(NCc1ccco1)c1cccc(NC(=O)c2ccccc2)c1 | -0.268
S=C(N/N=C/c1ccccc1Cl)Nc1ccccc1 | active: 6.51
CCOc1ccc(C(=O)Nc2cc(S(=O)(=O)Nc3ccccc3Cl)ccc2N2CCOCC2)cc1 | -0.333
COc1ccc(/C=N/NC(=O)Nc2nonc2N)cc1 | 0.0345
Cc1ccc2cc(CN(Cc3ccc(F)cc3)Cc3nnnn3C3CCCC3)c(=O)[nH]c2c1 | 0.356
COc1ccc(CCNC(=O)C(C)OC(=O)c2ccco2)cc1OC (configuration not stated) | 1.68
COc1cccc(OC)c1OCCCCCc1c(C)n[nH]c1C | -0.231
Cc1cnn(Cc2ccccc2)c1N | 0.892
CC(c1ccccc1)n1cc(C(=O)NCc2ccncc2)nn1 (configuration not stated) | -0.253
COCCNC(=O)C(C)OC(=O)c1cc2occc2n1C (configuration not stated) | 0.254
COc1ccc(NC(=O)c2noc3c2CCC3)cc1 | -0.49
CC(C)N1C(=S)SC2CS(=O)(=O)C=C21 (configuration not stated) | 0.775
O=C(COC(=O)C1CC(=O)N(Cc2ccco2)C1)c1ccc(OC(=O)c2ccccc2)cc1 (configuration not stated) | -0.101
COc1ccc(/C=C(/C(=O)c2cccs2)N2C=CC=CC2=C(C#N)C#N)cc1 | -0.343
O=C(N/N=C/c1ccc(F)cc1)c1c(O)c2ccccc2[nH]c1=O | 0.0579

Structure (SMILES) | z-score
O=C(CNC(=O)c1ccccc1)OCc1cccc([N+](=O)[O-])c1 | -0.474
O=C(COc1ccc(Cl)cc1)OCc1csc(Nc2ccccc2)n1 | -0.357
COc1cc2c(cc1NC(=O)CSc1ccc(C)cc1)oc1ccccc12 | -0.272
CCN1CCN(c2ncnc3c2nnn3Cc2ccccc2)CC1 | -0.609
O=C(Oc1ccccc1)Oc1ccc2c(c1)oc(=O)c1ccccc12 | -0.0309
CCC(=O)Nc1nc(C)c(C(=O)N2CCCCC2)s1 | -0.122
O=C(CSc1ncn[nH]1)Nc1ccc(Br)cc1F | -0.355
O=C(N/N=C/c1ccncc1)/C(=C/c1ccccc1)NC(=O)c1ccccc1 | -0.184
CN1CCN(c2ncccc2S(=O)(=O)N2CCCCC2)CC1 | 0.0306
O=C1OCCN1CCN(CN1C(=O)CCC1=O)CN1C(=O)CCC1=O | -2.56
CCCCN(CCCC)C(=O)CCS(=O)(=O)c1ccc2c(c1)n(C)c(=O)c(=O)n2C | -0.298
Cc1nc(-c2ccc(O)c(O)c2)cs1 | -0.0555
O=C(O)CCCNc1cc(N2CCC3(CC2)OCCO3)c2noc3c2c1C(=O)c1ccccc1-3 | -1.52
CC1(C)C(=O)OC(c2cccn2-c2ccc([N+](=O)[O-])cc2)C2(CCCCC2)C1=O (configuration not stated) | -1.27
COCc1cc(C)nc(N/N=C/c2ccc(Cl)c(Cl)c2)c1C#N | 0.403
CCOc1ccccc1NC(=O)N1CCCC(c2nc3c(nnn3Cc3ccc(C)cc3)c(=O)[nH]2)C1 (configuration not stated) | -0.761
CC(C)OC(=O)CSc1nc2cccnc2n1-c1ccc(F)cc1 | -0.866
Cc1cc(NC(=O)Cn2c(=O)n(Cc3ccccc3)c(=O)c3ccccc32)no1 | -0.506
CCOC(=O)C(=NC(C)C)NNc1cc(Cl)ccc1Cl | 0.0498
COc1ccc(-c2cc3ccccc3oc2=O)cc1NC(=O)c1ccc([N+](=O)[O-])o1 | -0.137
COc1ccc(-n2nc3c(c2NC(=O)Cc2cccc(C)c2)CS(=O)C3)cc1 (configuration not stated) | -0.22
CCOC(=O)C1(C(=O)O)NC(=O)CC1c1ccccc1 (configuration not stated) | -0.132
Cc1c(C(=O)NCc2cccnc2)oc2ccc(S(=O)(=O)N3CCC4(CC3)OCCO4)cc12 | active: 5.95

Structure (SMILES) | z-score
COc1ccc(/C=C(\C#N)C(=O)OCC(=O)Nc2c(C)cccc2C)cc1 | 0.0869
CCC(=O)Nc1nc2ccccc2n1Cc1ccc(C)cc1 | 0.127
O=C1/C(=C\c2cccnc2)SC(=S)N1C1CCS(=O)(=O)C1 (configuration not stated) | 0.0303
COc1ccc2cc(CN(CC3CCCO3)S(=O)(=O)c3ccccc3)c(=O)[nH]c2c1 (configuration not stated) | -0.0594
O=C(c1ccccc1)c1cc[n+]([O-])cc1 | 0.107
CC1CCN(c2cc(N3CCOCC3)c([N+](=O)[O-])cc2F)CC1 | 2.53
Cc1c(-c2ccccc2)oc2c(C(=O)OCC(=O)Nc3ccc(F)cc3)cccc2c1=O | -0.782
CN1/C(=C\C(=O)c2ccccc2Cl)c2ccccc2CC1(C)C | -0.83
COC(=O)CNS(=O)(=O)c1ccc(OC)cc1 | 0.822
N#Cc1nc(COc2ccc(Cl)cc2Cl)oc1N1CCOCC1 | -0.66
COc1ccc(-c2cc(C(F)(F)F)nc(SCC(=O)Nc3ccc4c(c3)OCO4)n2)cc1 | 0.09
CC(=O)CC(C)=NCCN=C(C)CC(C)=O | 0.232
CCCS(=O)(=O)N1CCN(CC2CC=CCC2)CC1 (configuration not stated) | 0.0499
Cc1cc(O)c(C2(C(F)(F)F)NCCNC2=O)cc1C (configuration not stated) | 0.0442
CCc1cccc(NC(=O)c2ccc(Cn3nc(C)cc3C)o2)c1 | -0.223
CCOC(=O)C(NC(=O)CC(C)C)(Nc1sc(C)c(CC)c1C#N)C(F)(F)F (configuration not stated) | -0.0924
O=C(Nc1nnc(-c2ccccc2SCc2ccccc2)s1)Nc1ccccc1F | 0.176
CCOc1ccc(-c2nnc3n2N=C(c2ccc(OC)cc2)CS3)cc1 | -0.208
CC1CCCC(C)N1CCCNC(=O)Cn1cc2c(n1)CCCC2 (configuration not stated) | 0.0339
CCS(=O)(=O)c1ccc2oc(SCC(=O)N3c4ccccc4CC3C)nc2c1 (configuration not stated) | -0.0468
Cc1cc(Cl)ccc1OCC(=O)N/N=C1\CCCc2ccccc21 | -0.0439
C/C(=C\C(=O)Nc1cc(C)on1)c1ccccc1 | -0.0528
O=C(NCC1OCCc2ccccc21)c1ccc(NC(=O)c2ccc(Cl)cc2)cc1 (configuration not stated) | 0.00824

Structure (SMILES) | z-score
CCCCCCN1C=C/C(=C\C=C(C#N)C#N)c2ccccc21 | -0.103
CCC(CC)C(=O)Nc1cccc(C(=O)NCCc2ccc(S(N)(=O)=O)cc2)c1 | 0.732
Fc1ccccc1N1CCN(CCCNc2ccc3nncn3n2)CC1 | 0.731
CC(C)c1ccc(NC(=O)C(c2ccccc2)N2CCOCC2)cc1 (configuration not stated) | -0.131
Cc1ccc(-n2ncc3c(=O)n(CC(=O)N4CCCc5ccccc54)cnc32)cc1C | -0.639
COc1ccccc1NC(=O)CSc1nc(N)cc(N)n1 | -1
COc1ccc(OC)c(N)c1 | 0.27
Cc1cc(C)c(S(=O)(=O)c2ccccc2)c(OC(=O)c2c(Cl)cc(Cl)cc2Cl)n1 | -0.0752
Cc1cc(C(=O)c2ccc(C(C)(C)C)cc2)c(NC(=O)CCl)s1 | 0.0681
Cc1cc(C)c(-c2csc(NC(=O)c3cc([N+](=O)[O-])ccc3N3CCOCC3)n2)c(C)c1 | -0.574
Cc1nnc(SCC(=O)Nc2ccccc2C(=O)NC2CC2)s1 | -0.136
Clc1cccc(Nc2ncnc3ccc(Br)cc23)c1 | -0.519
Cc1ccc(C(=O)CSC2=C(C#N)C(c3ccco3)C3=C(CC(C)(C)CC3=O)N2)cc1 (configuration not stated) | -0.558
CC1=CSC2=NC(=O)/C(=C\c3cccn3-c3ccccc3)C(=N)N12 | 0.673
COc1ccccc1N(CC(=O)Nc1ccc(F)c(F)c1)S(C)(=O)=O | 0.555
COc1ccccc1NC(=O)c1oc2ccc(C)cc2c1C | 0.0493
CCN(CC1COc2ccccc2O1)C(=S)Nc1ccc(F)cc1 (configuration not stated) | -0.33
O=C(CSc1nc(-c2ccccc2)nc2c1Cc1ccccc1O2)Nc1ccccc1 | -0.147
COc1ncnc2c1NC(=O)CS2 | 0.198
CCOc1ccccc1NC(=O)Cc1ccccc1OC | 0.0426
